Among the data in the supplement of paper PMC9588766 are cell viability values, retold here.

Counter-ions that a name gives are not always drawn. The full ranking holds about 1,900 compounds; the median of “cell viability of compound + 1 nM pemigatinib relative to pemigatinib-only (DMSO) wells” is about 0.95, and the lowest 2% start at about 0.22. The list shows a part of the results.

The assay has as its system PDC-DUC18828. As to the kind of experiment: cell viability of compound + 1 nM pemigatinib relative to pemigatinib-only (DMSO) wells (fraction); PDC-DUC18828 is a patient-derived cholangiocarcinoma cell line; higher = less growth inhibition. The settings on record: first compound 1 µM; pemigatinib concentration 1 nM; 72 h. The procedure:
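Selleck Bioactive library screen in the patient-derived FGFR2 fusion-positive ICC cell line PDC-DUC18828 (500 cells/well). Each compound was tested at 1 uM with 1 nM pemigatinib, in triplicate, for 72 h. Viability was read by CellTiter-Glo and normalised to plate DMSO controls. Value is the paper's averaged normalised viability.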
Turning to `CC(O)(CS(=O)(=O)c1ccc(F)cc1)C(=O)Nc1ccc(C#N)c(C(F)(F)F)c1` (configuration not stated) [Bicalutamide] + CCN1C(=O)N(c2c(F)c(OC)cc(OC)c2F)Cc2cnc3[nH]c(CN4CCOCC4)cc3c21 [pemigatinib], the cell viability is 0.96.

Turning to `O=c1cccc2n1C[C@@H]1CNC[C@H]2C1` [Cytisine] + CCN1C(=O)N(c2c(F)c(OC)cc(OC)c2F)Cc2cnc3[nH]c(CN4CCOCC4)cc3c21 [pemigatinib], the cell viability was 0.966.

As for `CC(C)OC(=O)[C@H](C)N[P@](=O)(CO[C@H](C)Cn1cnc2c(N)ncnc21)Oc1ccccc1` [Tenofovir Alafenamide (GS-7340)] + CCN1C(=O)N(c2c(F)c(OC)cc(OC)c2F)Cc2cnc3[nH]c(CN4CCOCC4)cc3c21 [pemigatinib], the cell viability turned out to be 0.864.

`O=[N+]([O-])c1ncc[nH]1` [Azomycin] + CCN1C(=O)N(c2c(F)c(OC)cc(OC)c2F)Cc2cnc3[nH]c(CN4CCOCC4)cc3c21 [pemigatinib]: the cell viability was determined as 0.97.

For `CC[C@H](C)[C@@H]([C@@H](CC(=O)N1CCC[C@H]1[C@H](OC)[C@@H](C)C(=O)N[C@H](C)[C@@H](O)c1ccccc1)OC)N(C)C(=O)[C@@H](NC(=O)[C@@H](NC)C(C)C)C(C)C` [Monomethyl auristatin E (MMAE)] + CCN1C(=O)N(c2c(F)c(OC)cc(OC)c2F)Cc2cnc3[nH]c(CN4CCOCC4)cc3c21 [pemigatinib], the cell viability came to 0.256.

For `c1ccc([C@@H]2C[C@H]2NC2CCNCC2)cc1` + CCN1C(=O)N(c2c(F)c(OC)cc(OC)c2F)Cc2cnc3[nH]c(CN4CCOCC4)cc3c21 [pemigatinib], the cell viability is 0.961.

Take `COc1ccc(CC2NCCc3cc(OC)c(OC)cc32)cc1OC` (configuration not stated) [Tetrahydropapaverine HCl] + CCN1C(=O)N(c2c(F)c(OC)cc(OC)c2F)Cc2cnc3[nH]c(CN4CCOCC4)cc3c21 [pemigatinib]: the cell viability was 0.927.

On to `C[C@]12CC[C@H](O)CC1=CC[C@@H]1[C@@H]2CC[C@]2(C)C(=O)CC[C@@H]12` [Dehydroepiandrosterone (DHEA)] + CCN1C(=O)N(c2c(F)c(OC)cc(OC)c2F)Cc2cnc3[nH]c(CN4CCOCC4)cc3c21 [pemigatinib], for which the cell viability was determined as 0.962.

Consider `CC(=O)O[C@H]1C[C@@H]2CC[C@@H]3[C@H](CC[C@@]4(C)[C@H]3C[C@H]([N+]3(C)CCCCC3)[C@@H]4OC(C)=O)[C@@]2(C)C[C@@H]1[N+]1(C)CCCCC1` [Pancuronium dibromide] + CCN1C(=O)N(c2c(F)c(OC)cc(OC)c2F)Cc2cnc3[nH]c(CN4CCOCC4)cc3c21 [pemigatinib], for which the cell viability came to 0.978.

On to `O=C(NCC1CCOCC1)c1cnc(Nc2ccc(Cl)cc2Cl)nc1C(F)(F)F` + CCN1C(=O)N(c2c(F)c(OC)cc(OC)c2F)Cc2cnc3[nH]c(CN4CCOCC4)cc3c21 [pemigatinib], for which the cell viability is 0.903.

For `CN1CCCCC1Cn1cc(C(=O)c2cc([N+](=O)[O-])ccc2I)c2ccccc21` (configuration not stated) + CCN1C(=O)N(c2c(F)c(OC)cc(OC)c2F)Cc2cnc3[nH]c(CN4CCOCC4)cc3c21 [pemigatinib], the cell viability amounted to 0.955.

With `O=c1ccc2cc(O[C@@H]3O[C@H](CO)[C@@H](O)[C@H](O)[C@H]3O)c(O)cc2o1` [Esculin] + CCN1C(=O)N(c2c(F)c(OC)cc(OC)c2F)Cc2cnc3[nH]c(CN4CCOCC4)cc3c21 [pemigatinib], the cell viability was determined as 0.996.

Consider `O=C(O)C(=O)c1cn(Cc2ccccc2)c2ccc(-c3ccc(OC(F)(F)F)cc3)cc12` [Tiplaxtinin (PAI-039)] + CCN1C(=O)N(c2c(F)c(OC)cc(OC)c2F)Cc2cnc3[nH]c(CN4CCOCC4)cc3c21 [pemigatinib], for which the cell viability came to 0.936.

As for `c1ccc2c(c1)Nc1ccccc1S2` [Phenothiazine] + CCN1C(=O)N(c2c(F)c(OC)cc(OC)c2F)Cc2cnc3[nH]c(CN4CCOCC4)cc3c21 [pemigatinib], the cell viability was found to be 0.953.

`Cc1cccc(Cc2c[nH]cn2)c1C` [Detomidine HCl] + CCN1C(=O)N(c2c(F)c(OC)cc(OC)c2F)Cc2cnc3[nH]c(CN4CCOCC4)cc3c21 [pemigatinib]: the cell viability worked out at 0.956.

In the case of `Cc1cccc(C)c1NC(=O)CN1CCCC1=O` [Nefiracetam] + CCN1C(=O)N(c2c(F)c(OC)cc(OC)c2F)Cc2cnc3[nH]c(CN4CCOCC4)cc3c21 [pemigatinib], the cell viability was 0.98.

`Cn1cc(C2=C(c3cn(C4CCN(Cc5ccccn5)CC4)c4ccccc34)C(=O)NC2=O)c2ccccc21` + CCN1C(=O)N(c2c(F)c(OC)cc(OC)c2F)Cc2cnc3[nH]c(CN4CCOCC4)cc3c21 [pemigatinib]: the cell viability amounted to 1.05.

On to `C=CCN1CC[C@]23c4c5ccc(O)c4O[C@H]2C(=O)CC[C@@]3(O)[C@H]1C5` [Naloxone HCl] + CCN1C(=O)N(c2c(F)c(OC)cc(OC)c2F)Cc2cnc3[nH]c(CN4CCOCC4)cc3c21 [pemigatinib], for which the cell viability came out at 0.91.

Regarding `C[C@@H]1CC[C@@]2(OC1)O[C@H]1C[C@H]3[C@@H]4CC=C5C[C@@H](O[C@@H]6O[C@H](CO)[C@@H](O[C@@H]7O[C@@H](C)[C@H](O)[C@@H](O)[C@H]7O)[C@H](O)[C@H]6O[C@@H]6O[C@@H](C)[C@H](O)[C@@H](O)[C@H]6O)CC[C@]5(C)[C@H]4CC[C@]3(C)[C@H]1[C@@H]2C` [Dioscin] + CCN1C(=O)N(c2c(F)c(OC)cc(OC)c2F)Cc2cnc3[nH]c(CN4CCOCC4)cc3c21 [pemigatinib], the cell viability was determined as 0.735.

On to `Cc1sc2c(c1C)C(c1ccc(Cl)cc1)=N[C@@H](CC(N)=O)c1nnc(C)n1-2` + CCN1C(=O)N(c2c(F)c(OC)cc(OC)c2F)Cc2cnc3[nH]c(CN4CCOCC4)cc3c21 [pemigatinib], for which the cell viability came to 0.742.

Turning to `[O-][n+]1ccccc1[S-].[O-][n+]1ccccc1[S-].[Zn+2]` [Zinc Pyrithione] + CCN1C(=O)N(c2c(F)c(OC)cc(OC)c2F)Cc2cnc3[nH]c(CN4CCOCC4)cc3c21 [pemigatinib], the cell viability is 0.104.

For `N[C@@H]1C[C@H]1c1ccccc1` [Tranylcypromine (2-PCPA) HCl] + CCN1C(=O)N(c2c(F)c(OC)cc(OC)c2F)Cc2cnc3[nH]c(CN4CCOCC4)cc3c21 [pemigatinib], the cell viability stood at 0.924.
